Experimental data published in PMC4336329 (PLoS ONE, 2015).
About 14,000 (4.5%) of roughly 310,000 compounds showed an effect of 50% or more. The effect is printed as a negative number. Some of the results follow.

target: human ether-à-go-go-related gene (hERG) potassium channel (human, UniProt Q12809); assay: primary screen, population patch clamp on CHO cells stably expressing hERG
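Further: peak tail current of the secondary pulse compared with the same well before compound.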

human ether-à-go-go-related gene (hERG) potassium channel, sequence (Q12809 whole entry, looked up): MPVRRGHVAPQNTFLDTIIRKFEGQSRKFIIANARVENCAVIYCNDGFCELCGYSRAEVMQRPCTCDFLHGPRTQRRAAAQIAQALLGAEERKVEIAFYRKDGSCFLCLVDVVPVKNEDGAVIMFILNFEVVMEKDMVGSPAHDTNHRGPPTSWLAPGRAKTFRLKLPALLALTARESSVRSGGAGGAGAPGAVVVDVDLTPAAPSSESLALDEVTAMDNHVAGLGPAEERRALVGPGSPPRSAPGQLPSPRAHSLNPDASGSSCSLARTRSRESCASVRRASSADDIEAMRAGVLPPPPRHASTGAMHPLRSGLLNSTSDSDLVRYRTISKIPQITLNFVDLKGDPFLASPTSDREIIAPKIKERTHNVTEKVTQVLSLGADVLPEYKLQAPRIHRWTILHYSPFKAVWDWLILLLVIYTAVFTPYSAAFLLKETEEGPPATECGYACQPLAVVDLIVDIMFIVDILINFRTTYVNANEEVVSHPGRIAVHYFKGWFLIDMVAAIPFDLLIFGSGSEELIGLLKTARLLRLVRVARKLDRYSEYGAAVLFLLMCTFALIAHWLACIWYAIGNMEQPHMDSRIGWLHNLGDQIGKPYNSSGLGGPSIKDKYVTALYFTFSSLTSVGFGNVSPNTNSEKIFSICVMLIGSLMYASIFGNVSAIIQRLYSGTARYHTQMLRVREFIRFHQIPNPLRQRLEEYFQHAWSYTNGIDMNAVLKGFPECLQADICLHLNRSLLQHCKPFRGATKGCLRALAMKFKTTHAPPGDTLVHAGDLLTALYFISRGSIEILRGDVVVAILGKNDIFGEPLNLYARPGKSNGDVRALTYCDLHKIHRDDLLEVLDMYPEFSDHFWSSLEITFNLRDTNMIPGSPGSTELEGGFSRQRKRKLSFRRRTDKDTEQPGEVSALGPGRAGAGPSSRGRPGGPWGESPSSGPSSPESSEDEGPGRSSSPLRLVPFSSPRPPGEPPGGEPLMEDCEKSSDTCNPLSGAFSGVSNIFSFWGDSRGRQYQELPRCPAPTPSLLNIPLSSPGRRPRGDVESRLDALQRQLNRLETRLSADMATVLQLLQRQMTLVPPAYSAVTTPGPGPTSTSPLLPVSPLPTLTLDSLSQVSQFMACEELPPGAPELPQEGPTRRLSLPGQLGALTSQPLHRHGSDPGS

| SMILES | hERG current change (%, negative = inhibition) at 10uM [%] |
| --- | --- |
| CCOC(=O)CC(=O)CSc1nc(-c2ccc3c(c2)OCO3)cc(C(F)(F)F)c1C#N | 13.2 |
| CC(=O)Nc1ccc(NC(=O)COC(=O)[C@@H](NC(=O)c2ccc(F)cc2)C(C)C)cc1 | 2.3 |
| COc1ccc(S(=O)(=O)NC(C)C(=O)Nc2cccc([N+](=O)[O-])c2)cc1 (centres unmarked) | -7.24 |
| Cc1ccc(/C=N/Nc2ccc(Cl)nn2)cc1 | -0.808 |
| CC(C)N1CCc2c(sc(NC(=O)c3ccc(C(=O)c4ccccc4)cc3)c2C(N)=O)C1.Cl | -38.2 |
| O=C(Nc1c(S(=O)(=O)c2ccc(Cl)cc2)csc1Br)c1ccccc1Cl | -42.4 |
| CC(C)CCNC(=O)C1CCN(C(=O)N(C)C)CC1 | 14.5 |
| CCOc1ccc2[nH]c(=O)c(C(c3nnnn3CCOC)N3CCOCC3)cc2c1 (centres unmarked) | 10.2 |
| CCS(=O)(=O)NCC(c1ccco1)N1CCN(c2ccc(F)cc2)CC1 (centres unmarked) | -11.5 |
| O=[N+]([O-])c1cccc(-c2ccc(CN3CCCCC3)o2)c1 | -35 |
| Cc1cccc(N2CCN(c3nc4ccccc4n4cnnc34)CC2)c1C | 15 |
| CCn1nccc1C(=O)Nc1ccc(Cl)c(Cl)c1 | -25.5 |
| Cc1cccc(NC(=O)C2CCCN(S(=O)(=O)c3ccc(-n4cnnn4)cc3)C2)c1 (centres unmarked) | -35.9 |
| CCOc1ccc(OCCC(=O)OCC(=O)Nc2cc(C)nn2-c2ccccc2)cc1 | -39.6 |
| Cc1ccc(C(=O)NCCn2ccc3ccccc32)cc1[N+](=O)[O-] | -36.3 |
| O=c1nc2ccccc2c(NS(=O)(=O)c2ccc(Cl)cc2)n1-c1ccccc1 | 10.3 |
| O=C(Nc1ccc(S(=O)(=O)Nc2ncccn2)cc1)c1ccccc1NS(=O)(=O)c1ccc(Cl)cc1 | 15.4 |
| O=C(CSc1nc2ccccc2s1)NCC1CCCO1 (centres unmarked) | 7.82 |
| COc1ccc(OCCSc2nc3ccccc3n2CC(=O)O)cc1 | 3.81 |
| CSc1nnc(C)c(=O)n1COC(=O)c1ccc(S(=O)(=O)N(C)C)cc1 | -26.8 |
| CCO[C@@H]1OC(C(=O)O)=C[C@H](c2cn(C(C)=O)c3ccccc23)[C@H]1CCCO | 13.7 |
| CC(C)(CO)C(O)C(=O)NCCC#N (centres unmarked) | 5.14 |
| Cl.OC(COc1ccc(Br)cc1)CN1CCCC1 (centres unmarked) | -24.3 |

| SMILES | hERG current change (%, negative = inhibition) at 10uM [%] |
| --- | --- |
| NC(=O)CC[C@@H]1NC(=O)[C@@H]2CCCN2C(=O)c2cc([N+](=O)[O-])cc(I)c2NCCC[C@@H](C(N)=O)NC1=O | 8.4 |
| Cc1ccc(COc2ccsc2-c2n[nH]c(=S)n2C)cc1 | 6.14 |
| CCOc1ccc(S(=O)(=O)N2CCCC(C(=O)NCc3cccnc3)C2)cc1 (centres unmarked) | -17.5 |
| CCCOc1ccc(/C=C2\SC(N)=NC2=O)cc1OC | 3.66 |
| CCC1CN(C(=O)N2CCC(C(=O)NCc3cc(OC)c(OC)c(OC)c3)CC2)c2ccccc2O1 (centres unmarked) | 7.08 |
| O=C(Nc1cc(Cl)cc(Cl)c1)c1ccno1 | 1.23 |
| O=C(Nc1cccc(Cl)c1Cl)C1CCN(C(=O)c2cccs2)CC1 | -9.78 |
| CCc1nc2ccc(C(=O)N(CC)CC(=O)Nc3c(F)cccc3F)cc2nc1CC | -3.65 |
| NC(=O)C(c1ccc(Cl)cc1)c1ncc(C(F)(F)F)cc1Cl (centres unmarked) | -9.62 |
| O=C(NCCCCNC(=O)c1c(Cl)cccc1Cl)c1c(Cl)cccc1Cl | 10.2 |
| Cc1cccc(OCC(=O)NCCCNC(=O)c2cccnc2)c1 | 18.8 |
| Cc1cccc(NCN2C(=O)C3C4C=CC(C4)C3C2=O)c1 (centres unmarked) | -7.49 |
| CCOc1ccc(OCC)c(NC(=O)CC2Oc3ccccc3NC2=O)c1 (centres unmarked) | 1.2 |
| Cc1cccc(-n2ccnc2CN2CCN(C3CCCC3)C(CCO)C2)c1 (centres unmarked) | -59.1 |
| O=C(C1CCC1)N1CCc2cc(S(=O)(=O)N3CCCCC3)ccc21 | -7.1 |
| COC(=O)c1ccc(NC(=O)c2cc3sccc3n2C)cc1 | 5.05 |
| COc1ccccc1-c1cc(C(F)(F)F)nc(S(C)(=O)=O)n1 | -1.71 |
| CC(C)c1onc(C(=O)N2CCC3(CC2)OCCO3)c1[N+](=O)[O-] | -2.76 |
| CC(=NCCCn1ccnc1)c1c(O)n(C2CCCCC2)c(=O)[nH]c1=O | -14.6 |
| CCn1c(CCCc2ccc(OC)c(C)c2)n[nH]c1=S | 7.46 |
| Cc1ccc(N2C(=O)C3C4C=CC(CC4)C3C2=O)cc1Cl (centres unmarked) | 17.4 |
| COc1ccc([C@H]2CC(=O)C=C(c3cccc(Cl)c3O)C2)cc1OC | -26.7 |
| Cc1cccc(NS(=O)(=O)c2cc(C(=O)NCCC3=CCCCC3)ccc2Cl)c1 | -0.512 |

| SMILES | hERG current change (%, negative = inhibition) at 10uM [%] |
| --- | --- |
| NS(=O)(=O)c1ccc(CCNC(=O)CSc2ccc3ccccc3c2)cc1 | -8.58 |
| Clc1ccc(Oc2nnnn2-c2ccccc2)cc1 | -21 |
| Cc1cc(SCC(N)=O)nc(SCC(=O)c2ccccc2)n1 | -8.23 |
| Cc1cc(CNC(=O)c2ccc3nc(Cc4ccccc4F)oc3c2)nn1C | 5.16 |
| COc1ccc(C(=O)NCCC(C)C)cc1S(=O)(=O)N1CCOCC1 | -8.41 |
| COc1ccc(S(=O)(=O)N2CCC(NC(=O)C3CCCCC3)CC2)cc1 | 8.75 |
| CC(C)CC(=O)Nc1ccccc1N1CCOCC1 | 6.04 |
| c1cnc(NC2C3CC4CC(C3)CC2C4)nc1 (centres unmarked) | -9.58 |
| CCCN(CCC)CCCNC(=O)c1cc2c(=O)[nH]c3ccccc3c2n1C | 7.94 |
| N=C1C(c2nc3ccccc3s2)=C(O)CN1NC(=O)c1ccco1 | -1.52 |
| COc1ccc(NC(=O)CSc2nnc(NC(=O)c3ccccc3C(=O)O)s2)cc1 | 13.6 |
| COc1ccc(-n2nc(C(=O)NCC(=O)N3CCCCC3)c3ccccc3c2=O)cc1 | 3.14 |
| COc1ccc(C(=O)CSc2nnc(CNC(=O)c3ccc(OC)cc3)n2C)cc1 | 6.86 |
| CNC(=O)c1csc(-c2ccc(C)cc2)n1 | 26.7 |
| O=S(=O)(Nc1ncccn1)c1ccccc1 | 3.63 |
| CCOC(=O)c1c(NC(=O)CSc2nnc(-c3ccccc3)o2)sc(C(C)=O)c1C | 5.01 |
| CCOc1ccccc1NC(=O)NC(=O)N(C)S(C)(=O)=O | 7.23 |
| COc1ccc(CNC(=O)c2ccc(Cn3cc(Br)cn3)o2)cc1 | -22.3 |
| O=C(O)CCc1nc(-c2cccs2)no1 | -0.164 |
| O=C(Nc1c2c(nn1-c1ccccc1)CS(=O)(=O)C2)c1ccccc1C(F)(F)F | 14.3 |
| C/C(=N\Nc1ccc(F)cc1)c1ccncc1 | -42.3 |
| CCN=C1SC(C(=O)Nc2cccc(Cl)c2)CC(=O)N1CC (centres unmarked) | -10.7 |
| CCN1C(=O)C2(C(C(=O)c3ccc(C)o3)=C(O)C(=O)N2CCCN(C)C)c2ccccc21 (centres unmarked) | 19.8 |

| SMILES | hERG current change (%, negative = inhibition) at 10uM [%] |
| --- | --- |
| CC(=O)O.NC1=NC(c2ccc(Br)cc2)n2c(nc3ccccc32)N1 (centres unmarked) | -8.18 |
| Cc1cc(C)c(S(=O)(=O)n2ccc3ccccc32)c(C)c1 | 6.67 |
| CN(C)S(=O)(=O)c1ccc(NC(=S)NC(=O)Cc2ccccc2)cc1 | 4.34 |
| CC(C)OC(=O)CCc1nc2ccccc2[nH]c1=O | 10.1 |
| Cn1nnnc1Sc1ccc(C(=O)O)cc1[N+](=O)[O-] | -1.08 |
| O=C(O)c1cc(-c2ccccc2Cl)n(-c2ccc(F)cc2)n1 | 11.3 |
| Cc1ccccc1C(=O)NCCCNC(=O)c1ccccn1 | 6.77 |
| CCOc1ccc(S(=O)(=O)N(C)c2ccc(OCC(=O)NCCc3ccc(OC)cc3)cc2)cc1 | -2.8 |
| CCc1cccc(NC(=O)Cc2cn(C)c3ccccc23)c1 | -7.6 |
| CCOC(=O)Nc1ccc2nc(N3CCCCCC3)sc2c1 | -50.6 |
| Nn1c(SCC(=O)Nc2ccc(F)cc2)nnc1-c1cccnc1 | 12 |
| COc1ccc(-c2cc3c(=O)n(CC(=O)NCCCN4CCC(N5CCCCC5)CC4)nc(C)n3n2)cc1 | -2.97 |
| Nc1ccc(CN2CCCCCC2)cc1 | 16.6 |
| O=C1CC(c2ccccc2)CC(O)=C1C=NCCN1CCNCC1 (centres unmarked) | 9.28 |
| C/C(=N\NC(=O)c1cccc(C)c1O)c1ccc(NC(=O)Cc2ccccc2)cc1 | -25.8 |
| O=C(CNS(=O)(=O)c1ccccc1)NCc1ccccn1 | -2.07 |
| COc1cc(OC)cc(C(=O)NCc2cc(C)nc3ccccc23)c1 | -2.16 |
| O=C(CCl)Nc1cccc(CP(=O)(c2ccccc2)c2ccccc2)c1 | -27.6 |
| CCOC(=O)C1=C(C)OC(N)=C(C#N)C1c1ccsc1 (centres unmarked) | 3.29 |
| Cn1nc(C(C)(C)C)cc1NC(=O)Nc1ccc(Cl)cc1 | 8 |
